Several values for one entry are separate records, joined by “and”; a condition that tells them apart may be missing. Equal values may be shown once. Screen size: about 310,000 compounds; about 18,000 (5.8%) were called active. Inconclusive means that the source gave no clear call. Such entries were picked first, then a sample of the others. The call rests on the fitted dose curve; in most records, active means well fitted inhibition curve with a large enough effect; inconclusive means small, poorly fitted or top-dose-only effect, or another doubt; inactive means no such curve, though single readings can be large or run the other way. Potencies of inconclusive entries are doubtful fits and often do not repeat.
Assay: Primary qHTS for delayed death inhibitors of the malarial parasite plastid, 48 hour incubation
Conditions: P. falciparum luciferase growth in erythrocytes; series mostly up to 28.7 µM
Outline: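 A one-generation exposure of luciferase-tagged malaria parasites in RPMI 1640/Albumax erythrocyte culture, 37 C and 5% CO2. Inhibition is inferred from decreased luminescence after adding detection reagent.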
Potency means the concentration at half of the fitted maximal effect; tags describe the fitted curve by direction and shape.

| SMILES | Potency |
| --- | --- |
| CN1CCN(S(=O)(=O)c2cccc(C(=O)N(C)C(c3ccccc3)c3ccccc3)c2)CC1 | inconclusive: 13.1 µM [inhibitor, partial curve] |
| Cc1n[nH]c(=O)c2c(NC(=O)CSc3nnc(C4CC4)n3C)oc(C)c12 | inconclusive: 11.7 µM [inhibitor, partial curve, poor fit] |
| Cc1cc(NCCN2CCOCC2)c2ccc3ccccc3c2n1 | inconclusive: 2.08 µM [inhibitor, full curve] |
| CCOC(=O)C1CCCN(CC(=O)/C=C2/N(C)c3ccccc3C2(C)C)C1 (configuration not stated) | inconclusive: 18.5 µM [inhibitor, single point] |
| CCOc1ccccc1N(C)C(=O)Cn1ncc2c([nH]c3ccccc32)c1=O | inconclusive: 13.1 µM [inhibitor, single point] |
| Fc1ccc(NC(=S)NNc2ncc(C(F)(F)F)cc2Cl)c(F)c1 | active: 9.28 µM |
| COc1ccc(C(=O)Nc2cc(Cl)ccc2N2CCOCC2)cc1S(=O)(=O)N1CCOCC1 | active: 10.4 µM |
| CCOc1ccccc1NC(=O)COC(=O)c1ccc2ccccc2n1 | inactive |
| CCC(=O)Nc1ccc(C(=O)COC(=O)Cc2ccsc2)cc1 | inconclusive: 10.4 µM [inhibitor, single point] |
| COc1ccc(-c2cc(C(=O)N3CCCC(C(F)(F)F)C3)c3ccccc3n2)cc1 (configuration not stated) | inconclusive: 11.7 µM [inhibitor, single point] |
| CCn1c(COc2ccc(OC)cc2)nnc1SCC(=O)Nc1cc(OC)ccc1OC | inconclusive: 13.1 µM [inhibitor, single point] |
| CCCCn1c(N)c(N(CCOC)C(=O)c2cc(-c3ccc(OC)c(OC)c3)nc3ccccc23)c(=O)[nH]c1=O | inconclusive: 18.5 µM [inhibitor, single point] |
| COc1ccc(NC2CCCN(C(=O)CCC(=O)c3ccc(F)cc3)C2)cc1 (configuration not stated) | inconclusive: 18.5 µM [inhibitor, single point] |
| Cc1ccc(C(=O)N2CCN=C2SCc2ccc([N+](=O)[O-])cc2)cc1C | inconclusive: 11.7 µM [inhibitor, partial curve, poor fit] |
| Cc1c(Cl)cccc1NC(=O)CCC(=O)NNC(=O)c1ccccc1 | inactive |
| CCOCCCNC(=O)CCc1nnc2n(CCC(C)C)c(=O)c3ccccc3n12 | inconclusive: 11.7 µM [inhibitor, single point] |
| Cc1nn(C)c(C(=O)NNC(=S)NCC(C)C)c1Cl | inactive |
| CC(C)C(=O)Nc1cccc(S(=O)(=O)c2cccc(NC(=O)C(C)C)c2)c1 | inconclusive: 14.7 µM [inhibitor, partial curve] |
| CCN(CC)c1ccc(NC(=O)COC(=O)c2ccc3ccccc3n2)cc1 | inactive |
| O=C(NCc1ccccc1)c1cc2nc(C3CC3)cc(C(F)(F)F)n2n1 | inconclusive: 0.0047 µM [inhibitor, partial curve, poor fit] |
| COc1cc(OC)c(C(=O)Nc2cccnc2)cc1OC | inactive |
| O=C1C2C3CCC(C3)C2C(=O)N1c1ccc(OS(=O)(=O)c2ccccc2)cc1 (configuration not stated) | inactive |
| C[C@H]1CCC(=O)N([C@H](CN=[N+]=[N-])Cc2ccccc2)CC1 | inactive |
| CCOc1ccc(CCNC(=O)c2cccc(C#N)c2)cc1OCC | active: 10.4 µM |

| SMILES | Potency |
| --- | --- |
| CCOC(=O)N1CCN(S(=O)(=O)N2CCCC(C(=O)NC(C)c3ccccc3)C2)CC1 (configuration not stated) | inactive |
| COc1ccc2nc(-c3ccc(Cl)cc3)cc(C(=O)O)c2c1 | inconclusive: 9.28 µM [inhibitor, partial curve] |
| O=C(Nc1nnc(-c2ccccc2)o1)c1ccc(Cl)cc1 | inconclusive: 18.5 µM [inhibitor, single point] |
| Cc1c(Cl)cccc1Nc1nc(NCCO)c2ccccc2n1 | inconclusive: 2.62 µM [inhibitor, partial curve] |
| c1cc2cn[nH]c2cc1NC1CCCCCC1 | inconclusive: 8.28 µM [inhibitor, partial curve, poor fit] |
| CCOc1ccc(-n2c(C)c(C(=O)OC)c3cc(O)ccc32)cc1 | inconclusive: 11.7 µM [inhibitor, partial curve] |
| CCCOCCOC(=O)c1[nH]c2c(c1C)C(=O)CC(c1cc(OC)ccc1OC)C2 (configuration not stated) | inconclusive: 18.5 µM [inhibitor, single point] |
| Cc1c(C)c2c(OCC(=O)N3CCC(C(N)=O)CC3)cc3c(c2oc1=O)CCC(C)(C)O3 | inconclusive: 13.1 µM [inhibitor, partial curve, poor fit] |
| Cc1ccc(OCC(=O)N2CCN(S(=O)(=O)c3ccc(Cl)s3)CC2)cc1C | inconclusive: 10.4 µM [inhibitor, single point] |
| N=c1c(C(=O)NCc2ccco2)cc2c(=O)n3ccccc3nc2n1Cc1ccc(Cl)cc1 | active: 10.4 µM |
| O=C(CCN1C(=O)C2C3C=CC(C4CC34)C2C1=O)Oc1cccc2cccnc12 (configuration not stated) | inconclusive: 10.4 µM [inhibitor, single point] |
| FC(F)(F)c1cccc(NCc2cn3cccnc3n2)c1 | inactive |
| Cc1ccc(NS(=O)(=O)c2ccc(OCC(=O)NCC3CCCO3)cc2)cc1 (configuration not stated) | inactive |
| COc1cc(C(=O)OCCN2CCCCC2)ccc1O | inactive |
| COc1cccc(CC2(CO)CCN(Cc3cnc(N4CCOCC4)s3)CC2)c1 | inactive |
| CCN1/C(=C/c2cccc[n+]2C)Sc2ccc(OC)cc21 | active: 1.04 µM |
| O=S(=O)(c1ccc(F)cc1)N1CC2CCCN2c2ccc(C(F)(F)F)cc21 (configuration not stated) | inconclusive: 11.7 µM [inhibitor, partial curve, poor fit] |
| Cc1cc(C)n(-c2cccc(CN3CCC(CO)(Cc4ccccc4)CC3)c2)n1 | inconclusive: 9.28 µM [inhibitor, partial curve] |
| Cc1ccc(-c2cc(C(=O)NCc3cnn(C)c3)c3cc(Br)ccc3n2)cc1 | inconclusive: 4.15 µM [inhibitor, single point] |
| O=C(Nc1ccc(Cc2ccncc2)cc1)c1cc([N+](=O)[O-])ccc1N1CCOCC1 | inconclusive: 11.7 µM [inhibitor, single point] |
| Cc1ccc(NC(=O)C(C)OC(=O)COc2cccc(C(F)(F)F)c2)cc1 (configuration not stated) | inactive |
| O=C(OCC#CCSc1nnc(-c2ccccc2)o1)c1ccco1 | inactive |
| O=C(c1cc2ccccc2cc1O)N1CCN(c2ccc([N+](=O)[O-])cc2)CC1 | active: 6.57 µM |
| COCc1cc(C)nc(OCC(=O)N/N=C/c2ccc(O)cc2O)c1C#N | inconclusive: 16.5 µM [inhibitor, single point] |

| SMILES | Potency |
| --- | --- |
| Nc1c(C(=O)CSc2nncn2-c2ccccc2)c(=O)[nH]c(=O)n1C1CC1 | inconclusive: 18.5 µM [inhibitor, single point] |
| Cc1ccc(S(=O)(=O)N/N=C/c2cc(Br)c(C)o2)cc1 | inactive |
| CNC(=O)c1sc(Nc2ccc(OCc3ccccc3)cc2)nc1C | inactive |
| O=C1CC(c2ccccc2)CC(O)=C1C=NCc1ccccc1Cl (configuration not stated) | inactive |
| COc1ccc(C2C(=O)c3ccccc3C2=O)cc1 | inactive and inconclusive: 18.5 µM [inhibitor, single point] |
| CC(C)/C=C/CN1CCC(Oc2ccc(C(=O)N3CCCC3)cc2)CC1 | inactive |
| CC(C)CCC1(CCNC(=O)c2cccs2)CCOC(C)(C)C1 (configuration not stated) | inconclusive: 11.7 µM [inhibitor, single point] |
| CCN(CC(=O)Nc1c(F)cccc1F)C(=O)c1ccc(N2C(=O)c3ccccc3C2=O)cc1 | inactive |
| Cc1ccccc1CSc1nnc(C)c(=O)n1N | inactive |
| O=C(Nc1ccccc1Br)C1CC(=O)N(c2ccc3c(c2)OCCO3)C1 (configuration not stated) | inconclusive: 18.5 µM [inhibitor, single point] |
| Cc1cc(C)c(C#N)c(SCC(=O)c2ccc(Cl)cc2Cl)n1 | active: 13.1 µM |
| CC(=O)c1cc2c(cc1NC(=O)CN1CCN(c3cccc(C(F)(F)F)c3)CC1)OCO2 | inconclusive: 14.7 µM [inhibitor, single point] |
| Nc1ccc(S(=O)(=O)Nc2nccc(/C=C/c3ccccc3F)n2)cc1 | inactive |
| COc1ccccc1C(=O)NC(=O)Nc1nc(-c2ccccc2)cc(C(F)(F)F)n1 | active: 3.7 µM |
| CCCCN(C(=O)c1ccco1)c1nnc(-c2cc(OC)c(OC)c(OC)c2)s1 | active: 1.85 µM |
| CCc1ccccc1OCC(=O)Nc1cc(S(=O)(=O)N(CC)CC)ccc1N1CCOCC1 | active: 1.31 µM |
| CCN(CC(=O)Nc1ccc2c(c1)OCCO2)C(=O)CCOc1ccccc1 | inactive |
| COc1cc(OC)cc(C(=O)Nc2ccccc2C(=O)NCc2cccnc2)c1 | inconclusive: 8.28 µM [inhibitor, single point] |
| CC(=O)N1CCN(C(=O)CCc2cc(C(C)(C)C)c(O)c(C(C)(C)C)c2)CC1 | inconclusive: 9.28 µM [inhibitor, partial curve, poor fit] |
| CN(C1CCCCC1)S(=O)(=O)c1ccc(=S)[nH]c1 | inconclusive: 11.7 µM [inhibitor, single point] |
| CCOC(=O)C(C)/C(C)=N/NC(N)=S (configuration not stated) | active: 1.31 µM |
| CCOc1ccccc1NC(=O)CSc1nc2c(c(=O)n(C)c(=O)n2C)n1C | inactive |
| Cc1nn(C)c(Cl)c1CN1CCCC(C(=O)Nc2ccc(-c3cscn3)cc2)C1 (configuration not stated) | inconclusive: 18.5 µM [inhibitor, partial curve, poor fit] |
| CCOc1cc(/C=C/c2nc3cc(C)c(C)cc3s2)ccc1OCC(=O)N1CCOCC1 | inconclusive: 3.7 µM [inhibitor, partial curve] |
